Assay results published in the supplement of paper PMC10338343.
± gives the standard deviation. In all, about 6,600 sequences were measured (“pre-steady-state target cleavage rate”: median about 0.07, highest 2% from about 0.72 on). Only a part is listed here, and it is no random draw.

tested on: MIWI (PIWIL1) piRISC loaded with Kctd7 piRNA (30 nt); assay: pre-steady-state target cleavage rate (min^-1); MIWI and MILI are mouse PIWI proteins and EfPiwi is from a freshwater sponge; tags in brackets are library labels; higher = faster piRNA-guided slicing of the target; settings: guide: Kctd7 piRNA 5'p-UGUUAAUCUCUCAGAGAAGGUGACAGUGAU; auxiliary factor: 500 nM mouse GTSF1
Experimental: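 Cleave-'n-Seq: a library of target RNAs (target site embedded in constant flanks, ACAGCATTCCGCGTTAGTGATATCCG... 5' flank; DNA-blocked outside the site) at 0.1 nM was incubated with 1 nM active mouse MILI or MIWI piRISC (synthetic 5'-monophosphorylated piRNA guide) with or without 500 nM mouse GTSF1 at 33 °C for 1 min to 16 h. Uncleaved targets were sequenced and normalised to non-target controls, and the pooled three trials were fitted to a burst-and-steady-state model to give the pre-steady-state cleavage rate (min^-1; k3 is constrained to at most 1e-4). Sequence is the target site only; target names encode pairing extent (gX:gY) and contiguous / 1-mismatch / 2-mismatch / bulge geometry. Fits with R² ≤ 0 are excluded.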

Sequence	pre-steady-state target cleavage rate
UACACUCUCACCUUCUCUGAGUGAUUAACA	0.0216 ± 0.0064
UAGUGAGUCACCUUCUCUGAGAGAGUUAACA	0.496 ± 0.07
UAGUGUGUCACCUUCACUGAGUGAUUAACA	0.0215 ± 0.0055
UUCUGUGUCACCUUCUCUGAGAGAUUAACA	0.224 ± 0.022
UAGUGAGUCACCUUCUCUGAGAGAAAAUGA	0.0204 ± 0.0083
UAGUGACAGUGCUUCUCUGAGAGCUUAACA	0.00641 ± 0.0021
UAGUGACUCAGCUACUCUGAGAGAUUAACA	0.00544 ± 0.0018
AUCACUGUGACCUUCUCUGAGAGAUAUUGA	0.0262 ± 0.0078
UAGUGACAGACCUUCUCUGAGAGAUUUAACA	0.0486 ± 0.0092
AAGUCUGUCACCUUCUCUGAGAGAUUAAGA	0.183 ± 0.029
AUCACUGUCACCUUGUCUCAGAGAUUAACA	0.0456 ± 0.0043
UAGACUGUCACCAUCACUGAGAGAUUAACA	0.41 ± 0.024
UACACUGUCACCUGCUCUGAGAGAUUAACA	0.571 ± 0.03
UAGUCUGUCACGUUCUCUGAGAGAUUAUCA	0.176 ± 0.023
AUCAGUGUCACCAUCUCUGAGAGAUUAACA	0.715 ± 0.038
UAGUGACUCACGUUCUCUGAGAGAUUAUGA	0.00614 ± 0.003
UAGUGAGUCACCUUCACUGAGAGAAUAACA	0.0606 ± 0.0099
AUCACUGUCAGCUUCUCAGAGAGAUUAACA	0.294 ± 0.021
UAGUGUCUCACGUUCUCUGAGAGAUUAACA	0.485 ± 0.03
UAGACUGUCUCCUUCUCUGAGAGUUUAACA	0.303 ± 0.055
UUCACUGUGACCUUCUCUGAGAGAUUAAGA	0.141 ± 0.02
UACACAGUCACCUUCUCUGAGAGAAUAACA	0.417 ± 0.073
UAGACUGUGCACCUUCUCUGAGAGAUUAACA	0.651 ± 0.048
UAGUGACAGACCUUCUCUGAAAGAUUAACA	0.153 ± 0.013

Sequence	pre-steady-state target cleavage rate
UAGUGACUCACGUUCUCUGAGAGAAUAACA	0.0347 ± 0.0089
AUCACUGUCACCUACACUGAGAGAUUAACA	0.426 ± 0.028
UUCACUGUCACCUUCUGCUGAGAGAUUAACA	0.216 ± 0.069
UAGUGACUCACCUUCUGUGAGAGAUUUACA	0.0961 ± 0.013
UAGUCUGUCACCUUGUCUGAGAGAUAUUGA	0.0161 ± 0.0071
UAGUGACACAACUUCUCUGAGAGAUUAACA	0.0826 ± 0.011
UAGUGUGAGUCCUUCUCUGAGAGAUUAUGA	0.00956 ± 0.0032
UACAGUCUCACCUUCUCUGAGAGAUUAACA	0.661 ± 0.027
UUCACUCUCACCUUCUCUGAGAGAUUAUCA	0.0915 ± 0.019
UAGUGAGUCACCUUCUCAGAGAGAUAAACA	0.139 ± 0.014
UAGUGACUUACCUUCUCUGAGAGAUUAACA	0.223 ± 0.015
UAGACUGUCAGGUUCUCUGAGAGAUUAACA	0.518 ± 0.042
UACACUGUCACCUUCUCUGAGACAUUAAGA	0.0144 ± 0.0049
UAGUGACUCACCUGCUCUGAGAGAUUAACA	0.275 ± 0.03
UAGUGACUCACCUUCACUGACAGAUUAACA	0.148 ± 0.015
UACACUGUCACCUUCUGUGAGAGAUAUUGA	0.0175 ± 0.0098
UACACUGUCACCUUCUCUGACAGAAUAACA	0.0237 ± 0.0069
UACACUGUCACCUUCUCAGAGAGAUUAACA	0.312 ± 0.03
UAGUGUGUCUCCUUCUGUGAGAGAUUAACA	0.345 ± 0.022
UACACUGUCACGUUCUCUGAGUGAUUAACA	0.0124 ± 0.0029
UAGUCUGUCACCAUCUCUGAGUGAUUAACA	0.0218 ± 0.0034
UAGUCUGUCACCUUGUCAGAGAGAUUAACA	0.0834 ± 0.0086
UAGUCUGUCACCUUCUCUGAGAGAUUAACG [g2:g26:cont:t1G]	0.414 ± 0.025
UACACUGUCACCAUCUCUGAGAGAUUAACA	0.532 ± 0.044

Sequence	pre-steady-state target cleavage rate
AUCACUGUCACCUUCUGUGAGAGAUUUACA	0.229 ± 0.028
UAGUGACAGACCUUCUCUGAGAAAUUAACA	0.0268 ± 0.0065
UAGUGACAGUGCUUCACUGAGAGAUUAACA	0.00805 ± 0.0033
UUCACUGUCACCUUCUCUGUCAGAUUUUGA	0.0217 ± 0.0082
UAGUGUGUCAGCUUCUCUGAGAGAUUAUGA	0.0265 ± 0.0077
UAGAGACUCACCUUCUCUGAGAGAUUAUGA	0.0764 ± 0.014
AUCACUGACACCUUCUCUGAGAGAUUAUCA	0.3 ± 0.048
UAGUGACAGUGGAUCUCUGAAGAUUAACA	< 0.0001
UAGUGACACACCUUCUCUGAGAGAUUACCA	0.123 ± 0.021
UAGUCUGUCACCUUGUCUGAGUGAUUAACA	0.0328 ± 0.0032
UAGUCUGUCACCUUCUCUGAGAGAUUAAACA	0.309 ± 0.027
UAGACUGUCACCUUCUCUGAGAGAAUUACA	0.0428 ± 0.014
UAGUGACAGACCUUCUCUGAGAGACUAACA	0.0225 ± 0.0061
UUCACUGUCACCUUCUGUGAGAGAUUAUGA	0.0537 ± 0.02
UAGUGUGUCAGCUUCUCUGAGAGAUUAAGA	0.0938 ± 0.015
UAGUGACUCACCUUCUGUGAGAGAUUUUGA	0.00649 ± 0.0023
UAGACUGUCACCUUCUCUGUGAGAAUAACA	0.0657 ± 0.0086
UUCACUGUCACGUUCUCUGAGAGAUUUUGA	0.0121 ± 0.0042
UAGACUGUCACCUACUCUGAGAGAUUAAGA	0.16 ± 0.026
AUCACUGUCACCUUCUCUGUCAGAUUAACA	0.0129 ± 0.0034
UAGUGUGUCACCUUCUGUGAGAGAUUAAGA	0.0234 ± 0.0064
UACACUGUCACGUUCUCUGAGAGAUAAACA	0.253 ± 0.027
UAGUGACAGUCCUUCACUGAGAGAUUAACA	0.0312 ± 0.0065
AACACUGUCACGUUCUCUGAGAGAUUAACA	0.71 ± 0.035

Sequence	pre-steady-state target cleavage rate
UAGUCUGUCACCUUCACUGAGAGAUUAUCA	0.117 ± 0.02
UUCACUGUCACCUUCUAUGAGAGAUUAACA	0.224 ± 0.018
UAGUGUGAUCACCUUCUCUGAGAGAUUAACA	0.594 ± 0.046
UACACUGUCACCUUCUCUCAGAGAUUAAGA	0.0398 ± 0.012
UAGUGAGUCUACCUUCUCUGAGAGAUUAACA	0.0864 ± 0.012
UAGUGACAGUGCAAGUCUGAGAGAUUAACA	< 0.0001
UAGUCUGUCACCUUCUCUGAGACGAUUAACA	0.0222 ± 0.0059
UAGUGUGUCACCUUCACUGAGAGAUUAACA	0.406 ± 0.02
AUCACUGUGUCCUUCUCUGAGAGAUUAACA	0.577 ± 0.036
UAGUGAGUCACCUUCUCUGAGAGUAAAACA	0.213 ± 0.044
AUCAGUGUCACCUUCUCUGUGAGAUUAACA	0.274 ± 0.013
UAGUCUGUCACGUUCUCUGAGAGAUUAAGA	0.102 ± 0.015
UACUCUGUCACCUUCUCUCAGAGAUUAACA	0.114 ± 0.0091
UACACUGUCACCUUCUCUGAGAGAUUGACA	0.317 ± 0.058
UAGUGUGUCACCUUCUCUAGAGAUUAACA	0.128 ± 0.0096
UAGUGACACACCUACUCUGAGUGAUUAACA	0.00841 ± 0.0023
UAGUGACAGUGGAAGAGAGAUAGAUUAACA	< 0.0001
UACACUUUCACCUUCUCUGAGAGAUUAACA	0.54 ± 0.035
UACACUCUCAGCUUCUCUGAGAGAUUAACA	0.137 ± 0.015
UAGUCUGUCACCAUCUCUGAGAGAUUAUCA	0.189 ± 0.026
AUCACUGCACCUUCUCUGAGAGAUUAACA	0.68 ± 0.045
UAGUGACUCACCAUCUCUGAGAGAUAAACA	0.0891 ± 0.0099
UACACUGUCACCUUCUCGAGAGAUUAACA	0.0886 ± 0.016
UUCACUGUCACCUUCUCUGACUGAUUAACA	0.0255 ± 0.0062

Sequence	pre-steady-state target cleavage rate
UAGUGACACACCUUGUCUGAGAGAUUAACA	0.135 ± 0.021
AUCACUGUCACCUUCUCUGAGAGAUUGAACA	0.338 ± 0.046
UAGUCUGUCACCUUCUCAGAGAGUUUAACA	0.247 ± 0.044
UAGACUGUCACCGUUCUCUGAGAGAUUAACA	0.625 ± 0.041
UAGUGACUCACCUUCUCUGAGUGAUUUACA	0.00692 ± 0.0028
UAGUGACUCACCUUCACUGAGAGAUUAACA	0.269 ± 0.026
AUGACUGUCACCUUCUCAGAGAGAUUAACA	0.4 ± 0.025
AUCACUGACACCAUCUCUGAGAGAUUAACA	0.603 ± 0.037
UAGUGUGAGUCCUUCUCUGAGAGAUUAAGA	0.0404 ± 0.0072
UAGUGACACACCUUCUCUGAGCGAUUAACA	0.0915 ± 0.015
UAGUGUGUCACCUUCUCUGAGAGAGUAACA	0.394 ± 0.046
UAGACUCAGACCUUCUCUGAGAGAUUAAGA	0.03 ± 0.0059
UUCACUGUCACGUUCUCUGAGUGAUUAACA	0.0184 ± 0.0031
UAGUGACUCACCUUCUCUGAGAGAAAAAGA	0.00503 ± 0.003
UAGUGAGUCACCUUCUCUGAGAGAAUAACA	0.361 ± 0.059
AUCACUGUCUGGUUCUCUGAGAGAUUAUGA	0.00392 ± 0.0027
UAGUGACUCACCUUCUCUCAGAGAUUUACA	0.0234 ± 0.0072
UACUCUGUCACCUUCUCUGACAGAUUAACA	0.205 ± 0.015
AUCACUGUCUCCUUCUCUCAGAGAUUAACA	0.124 ± 0.011
UACACUGUCACCUUCUCUGAGAGUAUUUGA	0.0918 ± 0.025
UAGUGACACACCUUCCUCUGAGAGAUUAACA	0.0665 ± 0.012
AACACUGUCACCUUCUCUGAGAGAUAUUGA	0.0742 ± 0.021
UAGUGAGUCACCUUCUCAGAGUGAUUAACA	0.0184 ± 0.0068
UUCACAGUCACCUUCUCUGAGAGAUUUACA	0.321 ± 0.043

Sequence	pre-steady-state target cleavage rate
UAGACUGUCACCUUCAGUGAGAGAUUAUGA	0.00378 ± 0.0033
UAGUGACAGUCCUUCUCUGAGAGAUCAACA	0.035 ± 0.006
UAGUGACAGUGGAUCUCUGAGAGCAUUAACA	< 0.0001
UUCACUGUCACCUUGUCUGAGAGAUUAAGA	0.481 ± 0.11
UAGUGUGUCACCUUCGUCUGAGAGAUUAACA	0.0473 ± 0.011
UAGUGACAGACCUUCUCUGAGUGAUUUACA	0.00486 ± 0.0026
UAGACUAUCACCUUCUCUGAGAGAUUAACA	0.56 ± 0.026
AUCACUGUCUCCUUCUCUGAGUGAUUAACA	0.0296 ± 0.0065
UAGUGACUCACCUUCUCUGGGAGAUUAACA	0.308 ± 0.017
UAGACUGUCACCUUCUCUGAGAGAUUAAGCA	0.252 ± 0.032
UAGACUGUCACCUUCUCUGUGAGAUUAACA	0.28 ± 0.0096
UAGUGACACACCUUCUUUGAGAGAUUAACA	0.135 ± 0.016
UAGUGAGUCACCUUCUCUGAGAGAUAUAACA	0.406 ± 0.044
UUCACUGAGUCCUUCUCUGAGAGAUUAUGA	0.0295 ± 0.0073
UAGUGAGUCACCUACUCUGAGAGUUUAACA	0.192 ± 0.032
UAGUGUGUCACCAUCUCUGAGAGAUAAACA	0.243 ± 0.032
UAGUGUGACACGUUCUCUGAGAGAUUAACA	0.571 ± 0.043
UACUGAGUCACCUUCUCUGAGAGAUUAAGA	0.207 ± 0.036
UAGUCUCUCACGUUCUCUGAGAGAUUAACA	0.0195 ± 0.0042
AACACUGACACCUUCUCUGAGAGAUUAACA	0.595 ± 0.03
AUCACUGAUCACCUUCUCUGAGAGAUUAACA	0.703 ± 0.056
UACACUGUCACCUUCUCUGAGAGAUUUUGA	0.0689 ± 0.019
UAGUGACUCAGCUUCUGUGAGAGAUUAACA	0.0815 ± 0.013
UAGUGUGUCUGCUUCUCUGAGAGAUUAACA	0.476 ± 0.032
